Lines with a small IC50 respond at low doses; fits outside the tested doses are given as limits. AUC sums up the same curve from the lowest dose to the 256-fold higher top dose: 1 means no effect, lower means more sensitive. For some assays here: An inferred top dose was derived from the fitted curves, not read from the paper.
What was measured:
Assay in all cases: Viability of human cancer cell lines after 72 h of drug (GDSC screen)
AZD7762 = compound: NC(=O)Nc1cc(-c2cccc(F)c2)sc1C(=O)N[C@H]1CCCNC1 [AZD7762]; settings: top dose 2 µM
Procedure: (§1)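 Human cancer cell lines in 384-well plates, medium with 10% serum, drug for 72 h over a 256-fold dose range (nine 2-fold or five 4-fold steps up to the top dose). Adherent lines were fixed and stained with the nucleic acid dye Syto60, suspension lines read with resazurin; signal relative to control wells, capped at 0 and 100%. One two-parameter sigmoid per drug and line, fitted in a mixed model over all curves with the slope shared within a line.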

XAV 939 = compound: Oc1nc(-c2ccc(C(F)(F)F)cc2)nc2c1CSCC2 [XAV 939]; settings: top dose 5 µM; top dose inferred
Procedure: as §1

NPK76-II-72-1 = compound: COc1cc(C(=O)NC2CCN(C)CC2)ccc1Nc1ncc2c(n1)N(C1CCCC1)C(C)CC(=O)N2C [NPK76-II-72-1]; settings: top dose 10.24 µM; top dose inferred
Procedure: as §1

GSK-650394 = compound: O=C(O)c1ccc(-c2c[nH]c3ncc(-c4ccccc4)cc23)cc1C1CCCC1 [GSK-650394]; settings: top dose 16 µM; top dose inferred
Procedure: as §1

Etoposide = compound: COc1cc([C@@H]2c3cc4c(cc3[C@@H](O[C@@H]3O[C@@H]5CO[C@@H](C)O[C@H]5[C@H](O)[C@H]3O)[C@H]3COC(=O)[C@H]23)OCO4)cc(OC)c1O [Etoposide]; settings: top dose 16 µM
Procedure: as §1

Bexarotene = compound: C=C(c1ccc(C(=O)O)cc1)c1cc2c(cc1C)C(C)(C)CCC2(C)C [Bexarotene]; settings: top dose 8 µM
Procedure: as §1

BMS-345541 = compound: Cc1ccc2nc(NCCN)c3ncc(C)n3c2c1 [BMS-345541]; settings: top dose 16 µM
Procedure: as §1

YK 4-279 = compound: COc1ccc(C(=O)CC2(O)C(=O)Nc3c(Cl)ccc(Cl)c32)cc1 [YK 4-279]; settings: top dose 10 µM
Procedure: as §1

Cell Line	AUC (AZD7762)	IC50 (AZD7762) [µM]	AUC (XAV 939)	IC50 (XAV 939) [µM]	AUC (NPK76-II-72-1)	IC50 (NPK76-II-72-1) [µM]	AUC (GSK-650394)	IC50 (GSK-650394) [µM]	AUC (Etoposide)	IC50 (Etoposide) [µM]	AUC (Bexarotene)	IC50 (Bexarotene) [µM]	AUC (BMS-345541)	IC50 (BMS-345541) [µM]	AUC (YK 4-279)	IC50 (YK 4-279) [µM]
PC-3 [JPC-3] (lung adenocarcinoma, adherent)	0.827	1.79	0.977	> 5	0.913	> 10.2	0.965	> 16	0.854	> 16	0.914	> 8	0.824	13.9	0.824	8.67
PC-14 (lung adenocarcinoma, adherent)	0.727	0.507	0.961	> 5	0.882	8.84	0.906	> 16	0.818	7.8	0.982	> 8	0.825	8.22	0.654	1.58
PCI-4B (head and neck, adherent)	0.671	0.363	0.922	> 5	0.771	3.72	0.828	9.17	0.519	1.13	0.943	> 8	0.818	8.42	0.651	1.6
PCI-6A (head and neck, adherent)	0.247	0.0238	0.98	> 5	0.886	> 10.2	0.584	1.69	0.468	0.821	0.939	> 8	0.777	6.3	0.722	2.63
PCI-15A (head and neck, adherent)	0.917	> 2	0.986	> 5	0.986	> 10.2	0.983	> 16	0.697	3.6	0.937	> 8	0.772	6.22	0.687	2.09
PCI-30 (head and neck, adherent)	0.706	0.549	0.982	> 5	0.98	> 10.2	0.985	> 16	0.947	> 16	0.981	> 8	0.985	> 16	0.75	3.92
PE/CA-PJ15 (head and neck, adherent)	0.961	> 2	0.942	> 5	0.968	> 10.2	0.985	> 16	0.787	7.6	0.986	> 8	0.934	> 16	0.697	2.35
PF-382 (T-cell lymphoblastic leukaemia, suspension)	0.631	0.273	0.99	> 5	0.473	0.547	0.83	8.39	0.49	0.944	0.975	> 8	0.578	1.58	0.99	> 10
PL-21 (acute myeloid leukaemia, suspension)	0.459	0.0949	0.966	> 5	0.639	1.66	0.879	> 16	0.772	7.19	0.847	7.46	0.594	1.89	0.808	6.23
PSN1 (pancreas, adherent)	0.777	0.675	0.991	> 5	0.854	6.18	0.57	1.5	0.959	> 16	0.823	3.75	0.759	4.8	0.565	0.911
QIMR-WIL (acute myeloid leukaemia, suspension)	0.503	0.128	0.957	> 5	0.786	4.28	0.756	5.33	0.231	0.171	0.909	> 8	0.729	4.38	0.66	1.71
RC-K8 (B-cell lymphoma, suspension)	0.919	> 2	0.967	> 5	0.942	> 10.2	0.987	> 16	0.86	10.7	0.984	> 8	0.913	> 16	0.973	> 10
REH (B-cell leukaemia, suspension)	0.692	0.421	0.962	> 5	0.62	1.35	0.852	11.6	0.251	0.199	0.977	> 8	0.837	10.2	0.716	2.49
RERF-LC-KJ (lung adenocarcinoma, adherent)	0.758	0.711	0.928	> 5	0.965	> 10.2	0.871	15.9	0.871	15.8	0.96	> 8	0.886	> 16	0.81	5.47
RERF-LC-MS (lung adenocarcinoma, adherent)	0.754	0.69	0.944	> 5	0.968	> 10.2	0.974	> 16	0.647	2.58	0.922	> 8	0.984	> 16	0.7	2.32
RF-48 (stomach, adherent)	0.771	0.859	0.979	> 5	0.625	1.48	0.927	> 16	0.446	0.699	0.935	> 8	0.863	> 16	0.924	> 10

Cell Line	AUC (AZD7762)	IC50 (AZD7762) [µM]	AUC (XAV 939)	IC50 (XAV 939) [µM]	AUC (NPK76-II-72-1)	IC50 (NPK76-II-72-1) [µM]	AUC (GSK-650394)	IC50 (GSK-650394) [µM]	AUC (Etoposide)	IC50 (Etoposide) [µM]	AUC (Bexarotene)	IC50 (Bexarotene) [µM]	AUC (BMS-345541)	IC50 (BMS-345541) [µM]	AUC (YK 4-279)	IC50 (YK 4-279) [µM]
RH-1 (rhabdomyosarcoma, adherent)	0.616	0.246	0.99	> 5	0.57	0.959	0.657	2.52	0.203	0.162	0.982	> 8	0.829	7.81	0.6	1.12
RH-41 (rhabdomyosarcoma, adherent)	0.678	0.357	0.991	> 5	0.938	> 10.2	0.958	> 16	0.857	9.74	0.954	> 8	0.968	> 16	0.569	0.935
RKN (ovary, adherent)	0.607	0.25	0.97	> 5	0.82	6.31	0.92	> 16	0.861	14.8	0.952	> 8	0.894	> 16	0.643	1.59
RKO (large intestine, adherent)	0.744	0.588	0.987	> 5	0.889	10.2	0.537	1.25	0.394	0.525	0.871	6.6	0.802	7.22	0.446	0.451
RMG-I (ovary, adherent)	0.821	1.42	0.942	> 5	0.917	> 10.2	0.911	> 16	0.908	> 16	0.973	> 8	0.903	> 16	0.722	2.99
RO82-W-1 (thyroid, adherent)	0.836	1.88	0.961	> 5	0.976	> 10.2	0.91	> 16	0.925	> 16	0.979	> 8	0.983	> 16	0.705	2.81
ROS-50 (B-cell leukaemia, suspension)	0.951	> 2	0.977	> 5	0.839	10	0.972	> 16	0.933	> 16	0.978	> 8	0.85	> 16	0.983	> 10
RPMI-2650 (head and neck, adherent)	0.882	> 2	0.976	> 5	0.932	> 10.2	0.809	9.23	0.433	0.646	0.945	> 8	0.896	> 16	0.892	> 10
RPMI-6666 (Hodgkin lymphoma, suspension)	0.84	1.81	0.976	> 5	0.675	2.19	0.863	> 16	0.526	1.2	0.823	6.04	0.725	5.03	0.765	4.37
RPMI-8402 (T-cell lymphoblastic leukaemia, suspension)	0.542	0.16	0.973	> 5	0.315	0.214	0.865	10.5	0.264	0.242	0.988	> 8	0.522	1.14	0.685	1.87
RPMI-8866 (chronic myeloid leukaemia, suspension)	0.437	0.0853	0.84	3.08	0.782	3.96	0.987	> 16	0.745	4.72	0.977	> 8	0.89	> 16	0.609	1.21
RT4 (bladder, adherent)	0.882	> 2	0.984	> 5	0.724	2.88	0.91	> 16	0.95	> 16	0.987	> 8	0.872	> 16	0.825	6.41
Raji (Burkitt lymphoma, suspension)	0.784	0.792	0.977	> 5	0.882	9.6	0.929	> 16	0.828	9.02	0.966	> 8	0.87	13.3	0.71	2.33
Ramos-2G6-4C10 (Burkitt lymphoma, suspension)	0.461	0.0997	0.99	> 5	0.664	1.69	0.887	13.4	0.842	8.94	0.983	> 8	0.876	12	0.68	1.83
SBC-1 (small cell lung carcinoma, suspension)	0.87	1.74	0.966	> 5	0.886	> 10.2	0.989	> 16	0.935	> 16	0.937	> 8	0.916	> 16	0.682	1.97
SBC-3 (small cell lung carcinoma, adherent)	0.825	1.06	0.988	> 5	0.749	3.05	0.695	3.32	0.292	0.276	0.948	> 8	0.811	7.57	0.594	1.1

Reference: the supplement of paper PMC4967469
